# ChEMBL document CHEMBL4888484, “Replenishing the malaria drug discovery pipeline: Screening and hit evaluation of the MMV Hit Generation Library 1 (HGL1) against asexual blood stage Plasmodium falciparum ,using a nano luciferase reporter read-out” (2022)
# The whole screen tested about 150,000 compounds, of which about 540 (0.36%) showed an effect of 50% or more. The list shows a part of the results.
# Test system: Plasmodium falciparum
# Test: Primary screen in NF54 nanoGlo assay, in single point, at 2uM, 72h; a lower Z score goes with more inhibition
# Assay type: functional, Erythrocyte
# Conditions: timepoint 72 hour
SMILES,% Inhibition,Z score
CN1CCO[C@H](C(=O)N(C)Cc2cc(Br)cn2C)C1,-5%,0.89
CCS(=O)(=O)N(CCN1CCCCC1)C1CN(C(=O)CCc2c[nH]c3ccccc23)C1,-2%,0.28
Cc1cnn(CCC(=O)N2C[C@@H](CN3CCOCC3)C[C@H](CO)C2)c1,3%,-0.54
Cc1ccc(C(=O)CN2C(=O)NC3(CCCCCCC3)C2=O)c(C)c1,-7%,1.04
CN(Cc1cccnc1)C(=O)[C@@H]1CCCN1C(=O)CC(C)(C)C,-12%,1.53
COc1ccc(CC(=O)Nc2ccc(N3CCN(c4ccccc4F)CC3)c(S(=O)(=O)N[C@H]3CCCc4ccccc43)c2)cc1,-3%,0.52
COC(=O)c1ccc(NC(=O)OC(C)(C)C)nc1,-4%,0.78
O=C(O)[C@H]1CC[C@@H](C(=O)N2CCN(c3ccc(F)c(Cl)c3)CC2)C1,0%,-0.04
CC(C)(C)c1cc(-c2cnc3n2CCOC3)cc(C(C)(C)C)c1O,3%,-0.39
Cc1nc(CN2C(=O)COc3ccc(S(=O)(=O)N4CCC(C)CC4)cc32)no1,-20%,2.42
CCc1ccc(CN2CCC(CNC(=O)C(C)(C)C)CC2)nc1,-7%,1.11
CCCc1cc(C(=O)NC[C@H]2CC[C@H](C(=O)O)CC2)n(C)n1,9%,-0.84
Cc1nc(NCC2CCCOC2C(C)C)sc1S(N)(=O)=O (centres undefined),-13%,1.47
CC(C)(C)OC(=O)[C@]1(C)CCCN1Cc1nc(=O)[nH][nH]1,1%,-0.11
CNC(=O)Cc1nc(-c2cc(F)cc(F)c2)cc(-c2ccc3c(c2)OCO3)n1,-8%,1.07
CCCN(CCc1cccs1)C(=O)CCc1cscn1,-14%,1.18
CC(C)N(C(=O)CN1C(=O)C[C@H](N(C)C)C1=O)C(C)C,2%,-0.31
Cc1cccc(C2CC2C(=O)N2CCC3(C2)NC(=O)NC3=O)c1 (centres undefined),-6%,1.16
O=C(O)c1ccc2c(c1)CCCN2S(=O)(=O)c1cnc(C2CC2)s1,-4%,0.7
Cc1ccc2c(Nc3cc(Cl)ccc3F)c(C(=O)N3CCCC3)cnc2n1,-8%,1.27
CCN1CC(=O)N[C@H]2CN(C(=O)c3cnc(NC(C)C)nc3)CC[C@@H]2OCc2cccc(c2)Oc2cc(OC(C)C)cc(c2)C1=O,7%,-0.83

SMILES,% Inhibition,Z score
CC(C)NC(=O)[C@@H]1C[C@H](N)CN1C(=O)c1cc2ccccc2s1,1%,-0.08
COc1ccc(OC)c(CNC(=O)c2ccc(Oc3nccnc3N3CCOCC3)cc2)c1,8%,-1.27
CCc1noc(C)c1C(=O)NC1CCC(CC)CC1 (centres undefined),-3%,0.34
COc1ccccc1/C=C/CN1CCC2(CC1)C(=O)NCCN2C,10%,-1.83
COc1ccc2cc1OCC(=O)N[C@@H](C)C(=O)N(C)CCCCN(C(=O)c1cc(Cl)ccc1OC)CCCNC(=O)CC2,-6%,0.7
Cc1[nH]ncc1CCCNc1ccc(Cl)c(C#N)n1,1%,-0.11
CC(C)c1nncn1CCNc1nc(C(F)(F)F)ns1,-7%,1.2
CCOC1CC(O)(CNC(=O)c2c(C)noc2C)C1(C)C (centres undefined),-4%,0.43
Cc1ccc(-c2onc(C)c2C(=O)Nc2ccccc2F)cc1,4%,-0.43
Cc1noc(C(F)F)c1C(=O)N[C@H](c1ncccn1)C1CC1,1%,-0.23
CCn1ccnc1[C@H](C)NC(=O)c1ccc(Cl)c2occc12,-1%,0.13
COc1nn(C)cc1C(=O)N1CCN(c2ccc(-c3noc(C)n3)cn2)CC1,2%,-0.23
CC(C)Cc1nsc(N2CCN(c3cnn(C)c3)C(=O)C2)n1,-2%,0.34
CC1CCN(c2nc(N(C)Cc3ccccc3)nc3c2CN(C(=O)OCc2ccccc2)CC3)CC1,-2%,0.28
Cc1ccc2nc(N3CCC[C@H](O)C3)c(CN3CCC(F)CC3)cc2c1,-5%,0.48
CCc1nc(OCC(=O)N[C@@H](C)c2ccccc2)c2c(C)c(C)oc2n1,11%,-1.53
CCCCCC(=O)NCCNC(=O)c1ccc(C)nc1,-3%,0.44
Cc1ccc(C)n1CC(=O)N1CCC[C@H](c2nnc3ccccn23)C1,-5%,0.61
CCn1c(=O)c(C)nc2cc(-c3noc([C@H](C)NS(=O)(=O)c4ccc(C)cc4)n3)ccc21,-4%,0.42
Cc1ccc(=O)n(CCNC(=O)c2cc(OCc3ccccc3)ncn2)n1,-16%,2.98
COc1ccc2nc(C)c(C(=O)N3CC(OCC(F)F)C3)n2n1,37%,-5

SMILES,% Inhibition,Z score
CCN(Cc1ccoc1)C(=O)NCc1ccc(OC(F)F)cc1,-5%,0.62
CCCc1cc(Cn2ccnc2-c2ccc(-c3cc[nH]n3)o2)on1,-5%,0.85
Cc1ccccc1CC(=O)Nc1ccnn1C1CCCC1,-3%,0.53
O=C(CCc1cccs1)NCc1nnc2ccccn12,16%,-1.84
CCOC(=O)Cn1cnc2c1c(=O)n(CCc1ccccc1)c(=O)n2-c1ccccc1,-16%,1.95
O=C(Cc1cccs1)Nc1nc(-c2ccc3c(c2)OCO3)cs1,-7%,0.94
CCN(C)c1ccnc(N2CCc3[nH]nc(-c4c(C)noc4C)c3C2)n1,-3%,0.31
O=C(c1ccc2c3c([nH]c2c1)CCCC3)N1C[C@H](O)[C@@H](F)C1,-13%,2.45
Cc1ccc(-c2ccnc3c(C(=O)NCc4cc(F)cc(F)c4)cnn23)cc1C,28%,-3.21
CCn1cc(CN2CCN(C(=O)c3ccco3)CC2)ccc1=O,-18%,1.93
COC1CCN(c2ccc(NC(=O)c3cc4c(C)cc(F)cc4[nH]3)cc2C(F)(F)F)CC1,0%,-0.05
O=C(c1ccc(F)cc1)N1CCN(C(=O)c2cc(O)cs2)CC1,-15%,2.35
COc1cc2c(cc1OC)CN(C(=O)c1ccc(S(=O)(=O)N3CCCC3)cc1)CC2,6%,-0.78
COC(=O)CN(C)C(=O)C[C@]1(c2ccccc2)CC(=O)N(CCc2ccccn2)C1=O,-5%,0.61
CCCO[C@@H](C)CNC(=O)c1oc(CC)nc1C,-3%,0.57
CCN1C(=O)Cc2cc(NC(=O)COc3ccccc3OC)ccc21,2%,-0.27
Cc1ncsc1C(=O)Nc1ccc(-n2cncn2)cn1,-3%,0.42
Cc1noc(C)c1CN1CCC[C@H](C(=O)Nc2ccccn2)C1,7%,-0.88
CC1CCCC(NC(=O)NCC(=O)Nc2cccnc2)C1 (centres undefined),-18%,2.72
Cn1cc(C(=O)NC[C@@H]2COc3ccccc3C2)cn1,-10%,1.18
CN1CCC[C@@H]1CCNC1CCN(c2ccc3c(c2)CCC3)CC1,21%,-2.96

SMILES,% Inhibition,Z score
CCCNC(=O)C(C)N1CCCC(C(F)(F)F)C1 (centres undefined),4%,-0.51
CC(C)S(=O)(=O)N1CCC2(CC1)C[C@@H](c1ccccc1)C(=O)N(C)C2,6%,-1.23
CCN(CC)c1ccc(CN(CCN(C)C)S(=O)(=O)c2ccccc2)c(OS(=O)(=O)CC)c1,2%,-0.27
O=C(C[C@@H](c1ccccc1)c1ccc(Cl)cc1)NCc1noc(C2CC2)n1,-23%,3.65
O=C(CCc1nc(-c2ccc(S(=O)(=O)N3CCOCC3)cc2)no1)N1CCOCC1,-3%,0.3
O=S(=O)(NC(C1CC1)C1CC1)c1ccc2ccccc2c1,7%,-1.34
COCCOCC(=O)N1CCN(c2nc3nccc(-c4cccc(C(F)(F)F)c4)n3n2)CC1,-8%,1.18
Cc1nccn1C[C@H]1CCCN(C(=O)Cc2noc3ccccc23)C1,-10%,1.48
COc1ccc(CC(=O)NCc2ccc3c(c2)CCN3C(=O)c2ccc(F)cc2)cc1OC,-8%,1.52
COCC1CCCN(C(C)c2nnnn2C)CC1 (centres undefined),1%,-0.1
CC(=O)N1CCN(c2ncnc(N3CCN(C(C)=O)CC3)c2C(C)C)CC1,-5%,0.63
CC(=O)NC(C)(C)C(=O)NCCc1noc(C2CCC2)n1,-16%,1.73
CCC1(CNS(=O)(=O)CCN2C(=O)CCC2=O)CC1,-14%,1.6
COc1ccc(-c2noc(-c3cccnc3N3CCN(c4ccccc4)CC3)n2)cc1,-8%,1.14
CCC1CCc2c(sc(NC(=O)CC(C)CC(=O)O)c2C(=O)NCc2ccccc2)C1 (centres undefined),8%,-1.26
C[C@]1(c2ccccn2)NC(=O)N(Cc2ccccc2C#N)C1=O,-15%,1.92
CCC(NC(=O)N[C@H]1CC[C@@H](C(=O)N2CCCC2)C1)C1CCCO1 (some centres undefined),3%,-0.49
O=C(Nc1ccc(Cl)c(Cl)c1)Nc1nc(-c2cc(Cl)ccc2Cl)cs1,0%,0.01
COc1ccc(C(=O)N2CCC3(CC2)C[C@@H](Cc2cccc(F)c2)CCO3)cc1,-18%,2.36
